Test results reported in the CheMixHub viscosity set.
Further values from the same series stand in other lists.

Assay: xn = mol fraction of the nth substance listed
Details: 318.15 K, 101 kPa

OCCCOCCCO + NCCN
Details	viscosity [mPa·s]
x1 = 0.1611	2.11
x1 = 0.1943	2.51
x1 = 0.23	3.06
x1 = 0.2682	3.73
x1 = 0.3094	4.64
x1 = 0.3538	5.8
x1 = 0.4019	7.31
x1 = 0.4541	9.03
x1 = 0.5111	11.2
x1 = 0.5734	13.6
x1 = 0.6418	16
x1 = 0.7174	18.2
x1 = 0.8013	19.9
x1 = 0.8949	20.8
